# Source: ChEMBL document CHEMBL4888484, “Replenishing the malaria drug discovery pipeline: Screening and hit evaluation of the MMV Hit Generation Library 1 (HGL1) against asexual blood stage Plasmodium falciparum ,using a nano luciferase reporter read-out” (2022)
# In all, about 150,000 compounds went through this assay and about 540 (0.36%) showed an effect of 50% or more. The list shows a part of the results.
# Test system: Plasmodium falciparum
# Test: Primary screen in NF54 nanoGlo assay, in single point, at 2uM, 72h; a lower Z score goes with more inhibition
# Type: functional, Erythrocyte
# Conditions: timepoint 72 hour
Structure (SMILES),% Inhibition [%],Z score
CN(Cc1nc2ccccc2c(=O)[nH]1)C(=O)NCc1noc(C2CCCC2)n1,-22,2.2
NC(=O)c1cccc(OC(=O)c2cc3cc(F)ccc3[nH]2)c1,5,-0.86
O=C(O)c1cc2c3c(c1)C1CCCCC1CN3C(c1ccccc1)C1CC=CC21 (stereo unspecified),3,-0.34
Cc1cc(=O)n(CCN2CC(c3ccccn3)C2)c(=O)[nH]1,-5,0.99
Cc1cccc(C)c1CCNC(=O)N1CCO[C@H](c2nccs2)C1,-2,0.21
O=S(=O)(NCc1cccc2nsnc12)[C@H]1C[C@@H]1c1ccccc1,-1,0.14
O=C(C1CCn2cncc2C1)N1CCC(C2CCCC2)C1 (stereo unspecified),-4,0.51
COc1ccc(Cc2nc3c4c(ncn3n2)Oc2cc(O)ccc2[C@@H]4c2ccc(OC)cc2)cc1,-2,0.19
Cc1nn(-c2ncccn2)c2c1[C@@H](c1cccc(OCc3cccc(Cl)c3)c1)CC(=O)N2,26,-2.91
Cc1cc(-c2c(C)sc(C)c2S(=O)(=O)Nc2ccc(F)c(Cl)c2)[nH]n1,-6,0.69
CC1=CCN(C(=O)Nc2nccs2)CC1,36,-4.11
CCCCN1CCN([C@@H](C(=O)NC2CCCC2)c2ccccc2)C(=O)C1=O,3,-0.35
CC(C)c1ccoc1C(=O)Nc1cccc2c1OC(C)(C)C[C@@H]2O,2,-0.37
CCCN(Cc1nc(-c2ccc(OC)c3ccccc23)oc1C)C[C@H]1CCCO1,-18,1.97
CCN(CC)C(=O)CC[C@@H]1CNC(=O)[C@@H]2C[C@H](NCc3cccc(Cl)c3)CN12,-17,3.1
CC1CCN(C[C@H]2CCCN(c3nnc(C(F)(F)F)s3)C2)CC1,-5,0.88
O=C(c1coc(CN(CCc2c[nH]c3ccccc23)Cc2ccccc2Cl)n1)N1CCOCC1,-23,2.35
CCC[C@@H]1NC(=O)N(Cc2nsc(N(C)C)n2)C1=O,10,-1.49
COc1ccc(CNC(=O)c2nn3c(c2Br)N[C@@H](c2ccc(Br)o2)C[C@H]3C(F)(F)F)cc1,-9,1.35
C[C@H](Oc1ccccc1)C(=O)N1CCC(=C2CC2)CC1,-6,0.67
COC(=O)c1ccc(NC(=O)c2ccc(N3C(=O)CCS3(=O)=O)cc2Cl)cc1,-2,0.3
CCc1nc(CN(C)Cc2cccnc2OC)no1,3,-0.36
O=C(c1ccncn1)N1CC(F)(F)C[C@H]1COc1ccc2c(c1)CCC2,-5,0.86
O=C(c1cc2n(n1)CCN(Cc1ccccc1)C2)N1CCCOCC1,4,-0.56
CCC[C@H](NC(=O)NCc1nn(CC)nc1C)C1CCC1,-6,0.77
c1cc(-c2noc(C3CC3)n2)cc(N2CCOCC2)n1,-13,1.84
CCN1CCCC1CNC(=O)C1c2ccccc2C(=O)N(CCOC)C1c1ccc(F)cc1 (stereo unspecified),1,-0.14

Structure (SMILES),% Inhibition [%],Z score
O=C(Cn1cnc2ccccc2c1=O)N(Cc1ccccc1)[C@H]1CCS(=O)(=O)C1,-4,0.66
O=C(Nc1ccccc1)OC1CCCC(NC(=O)c2c(F)cccc2Cl)C1 (stereo unspecified),14,-1.56
O=C(Nc1cccc(S(=O)(=O)N2CCOCC2)c1)c1cc(Cl)c2c(c1)OCCCO2,-5,1.07
Cc1cccc(NCC2CCCCC2)c1C(N)=O,-6,0.82
CN(Cc1ccsc1)C(=O)NCCc1cccn1C,0,-0.04
CN(C)CCN(Cc1ccc(OS(=O)(=O)c2ccc(F)cc2)cc1)C(=O)CCC1CCCC1,10,-1.58
CC[C@]1(CO)CCCN(Cc2ccccc2OCC(=O)N2CCCCC2)C1,0,-0.06
O=C(Nc1ccccc1-c1ncco1)N1CCC2(C1)OCCO2,13,-1.52
CC(C)Oc1ccc([C@H]2CC(=O)Nc3c2cnn3Cc2ccco2)cc1,-1,0.07
CN1CCC[C@H](C(=O)N2CCN(c3ccccc3O)CC2)C1,-4,0.62
Nc1nnc(C2CCN(C(=O)OC3CCC3)CC2)o1,20,-2.57
Cc1nn(C)c(C)c1S(=O)(=O)N1CCC=C(c2ccccn2)C1,-8,1.48
Cc1c(Br)cccc1C(=O)NC(C)(C)C(=O)O,1,-0.24
O=C(N[C@@H](N1CCOCC1)C(Cl)(Cl)Cl)c1ccccc1Cl,37,-4.98
CN1C(=O)[C@H](CC(=O)NCCc2cnn(-c3ccccc3)c2)N(C)C1=O,-6,1
Cc1nc2c(NS(=O)(=O)c3c(C)noc3C)cccn2n1,-5,0.58
O=C1NCC[C@@H]1CCn1cnc2c1CCCC2,-13,1.16
COc1ccccc1N1CCN(C(=O)Cn2cnc3c([nH]c4ccc(C)cc43)c2=O)CC1,6,-1.13
Cc1ccc(N2CCC(C(=O)N3CC[C@H](CN(C)C)C3)CC2)nc1,-5,0.78
O=C(Nc1ccccc1Cl)C1C2Cc3ccccc3C2ON1c1ccccc1 (stereo unspecified),-15,1.69
c1cncc(-c2nc(N3CCCC4CCCCC43)c3ccccc3n2)c1 (stereo unspecified),-5,0.98
Cc1oc(-c2cnn(C)c2)nc1C(=O)N(CC(F)(F)F)C1CCC1,2,-0.27
Cc1cc(C)cc(NC(=O)N2CCCn3nc(-c4cccn4C)cc32)c1,6,-0.75
O=C(NC[C@H]1CCCO1)Nc1snnc1-c1ccccc1,-12,1.62
COc1c(F)ccc(F)c1C(=O)N[C@H]1CC(=O)N(C(C)C)C1=O,-5,0.67
CCN(C)c1ccccc1CNS(=O)(=O)c1sccc1OC,-5,0.46
